Counter-ions that a name gives are not always drawn. Viability of KB3-1 and Nalm-6 cells after 48 h of drug alone (CellTiter-Glo), 11 doses over about 4.5 log units. % of DMSO wells, lower = more cell loss; AC50 from the fitted curve, lower = more potent. No active / inactive call. Nalm-6 was screened in two runs. AC50 is listed only for well-fitted inhibitory curves. KB3-1 is a HeLa-derived carcinoma line, Nalm-6 a B-cell precursor leukaemia line.
Legend:
Nalm-6 [1] = experiment: log AC50 of viability decrease (48 h) (log10 M); higher = less potent
Experimental: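 Eleven-dose screen of the NCATS MIPE 3 library on cells without co-treatment; CellTiter-Glo after 48 h. AC50 from the curve fit; only inhibitory curves of the better fit classes are listed.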

Nalm-6 [2] = experiment: viability (% of DMSO control); higher = more viable cells
Experimental: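 Eleven-dose screen of the NCATS MIPE 3 library on cells without co-treatment; CellTiter-Glo after 48 h, as % of DMSO wells.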

Compound | log AC50 of viability decrease (Nalm-6 [1]; run: 2) | viability (Nalm-6 [2]; run: 1, 0.00078 µM) [%] | viability (Nalm-6 [2]; run: 1, 0.00234 µM) [%] | viability (Nalm-6 [2]; run: 1, 0.00702 µM) [%] | viability (Nalm-6 [2]; run: 1, 0.0211 µM) [%] | viability (Nalm-6 [2]; run: 1, 0.0632 µM) [%] | viability (Nalm-6 [2]; run: 1, 0.19 µM) [%] | viability (Nalm-6 [2]; run: 1, 0.569 µM) [%] | viability (Nalm-6 [2]; run: 1, 1.71 µM) [%] | viability (Nalm-6 [2]; run: 1, 5.12 µM) [%] | viability (Nalm-6 [2]; run: 1, 15.4 µM) [%] | viability (Nalm-6 [2]; run: 1, 46.1 µM) [%] | viability (Nalm-6 [2]; run: 2, 0.00078 µM) [%] | viability (Nalm-6 [2]; run: 2, 0.00234 µM) [%] | viability (Nalm-6 [2]; run: 2, 0.00702 µM) [%] | viability (Nalm-6 [2]; run: 2, 0.0211 µM) [%] | viability (Nalm-6 [2]; run: 2, 0.0632 µM) [%] | viability (Nalm-6 [2]; run: 2, 0.19 µM) [%] | viability (Nalm-6 [2]; run: 2, 0.569 µM) [%] | viability (Nalm-6 [2]; run: 2, 1.71 µM) [%] | viability (Nalm-6 [2]; run: 2, 5.12 µM) [%] | viability (Nalm-6 [2]; run: 2, 15.4 µM) [%] | viability (Nalm-6 [2]; run: 2, 46.1 µM) [%] | log AC50 of viability decrease (Nalm-6 [1]; run: 1)
Cc1oncc1C(=O)Nc1ccc(C(F)(F)F)cc1 [Leflunomide] | -4.68 | 106 | 120 | 124 | 117 | 119 | 112 | 108 | 112 | 112 | 105 | 60.2 | 106 | 109 | 108 | 107 | 114 | 106 | 103 | 107 | 108 | 96.2 | 64.8 | 
Fc1cc(-c2cccc3ncc(-c4cnn(C5CCNCC5)c4)nc23)cc(F)c1CN1CCOCC1 [NVP-BSK805] | -4.63 | 117 | 110 | 112 | 110 | 98.7 | 104 | 107 | 93.6 | 104 | 71.9 | 0.505 | 104 | 99.8 | 101 | 103 | 101 | 99.6 | 100 | 101 | 94.5 | 82.9 | 1.12 | -4.68
Cc1cn(-c2cc(NC(=O)c3ccc(C)c(Nc4nccc(-c5cccnc5)n4)c3)cc(C(F)(F)F)c2)cn1 [Nilotinib] | -4.83 | 112 | 107 | 115 | 106 | 101 | 100 | 109 | 87.1 | 77.9 | 53.1 | 7.59 | 105 | 102 | 104 | 110 | 111 | 107 | 107 | 105 | 78.1 | 62.4 | 16.1 | -4.73
Cc1ccc(C(=O)Nc2ccc(CN3CCN(C)CC3)c(C(F)(F)F)c2)cc1C#Cc1cnc2cccnn12 [Ponatinib] | -5.88 | 108 | 119 | 120 | 113 | 106 | 101 | 91.9 | 64.5 | 44.3 | 17.9 | 0.698 | 107 | 105 | 107 | 109 | 106 | 96.7 | 80.8 | 45 | 5.65 | 4.03 | 1.52 | -5.38
CC(C)OC(=O)/C1=C/N(CC(C)(C)C2=C1[NH]C3=CC=CC=C23)C(=O)C4=CC=C(F)C(=C4)F [Turofexorate isopropyl] | -5.53 | 113 | 123 | 129 | 135 | 122 | 125 | 118 | 118 | 113 | 114 | 91.4 | 108 | 107 | 106 | 105 | 102 | 102 | 104 | 55.7 | 39.5 | 0.0065 | -0.782 | 
CCC1(O)CC2CN(CCC3=C([NH]C4=CC=CC=C34)[C@@](C2)(C(=O)OC)C5=C(OC)C=C6N(C=O)[C@H]7[C@@](O)([C@H](OC(C)=O)[C@]8(CC)\C=C/CN9CC[C@]7([C@H]89)C6=C5)C(=O)OC)C1 (stereo partly specified) [Vincristine sulfate] | -8.78 | 43.6 | 19.3 | 21 | 16.6 | 17.2 | 18.9 | 16 | 15.2 | 9.77 | 8.85 | 3.23 | 75.2 | 22.3 | 14.9 | 12.1 | 13.4 | 9.82 | 8.99 | 6.78 | 5.85 | 5.87 | 2.29 | 

Reference: the supplement of paper PMC4996465
